# The campaign covered roughly 310,000 compounds. About 2,200 (0.71%) showed an effect of 50% or more. The effect is printed as a negative number. The list shows a part of the results.
# Biological target: human ether-à-go-go-related gene (hERG) potassium channel (human, UniProt Q12809)
# Experiment: primary screen, population patch clamp on CHO cells stably expressing hERG
# human ether-à-go-go-related gene (hERG) potassium channel, sequence (Q12809 whole entry, looked up): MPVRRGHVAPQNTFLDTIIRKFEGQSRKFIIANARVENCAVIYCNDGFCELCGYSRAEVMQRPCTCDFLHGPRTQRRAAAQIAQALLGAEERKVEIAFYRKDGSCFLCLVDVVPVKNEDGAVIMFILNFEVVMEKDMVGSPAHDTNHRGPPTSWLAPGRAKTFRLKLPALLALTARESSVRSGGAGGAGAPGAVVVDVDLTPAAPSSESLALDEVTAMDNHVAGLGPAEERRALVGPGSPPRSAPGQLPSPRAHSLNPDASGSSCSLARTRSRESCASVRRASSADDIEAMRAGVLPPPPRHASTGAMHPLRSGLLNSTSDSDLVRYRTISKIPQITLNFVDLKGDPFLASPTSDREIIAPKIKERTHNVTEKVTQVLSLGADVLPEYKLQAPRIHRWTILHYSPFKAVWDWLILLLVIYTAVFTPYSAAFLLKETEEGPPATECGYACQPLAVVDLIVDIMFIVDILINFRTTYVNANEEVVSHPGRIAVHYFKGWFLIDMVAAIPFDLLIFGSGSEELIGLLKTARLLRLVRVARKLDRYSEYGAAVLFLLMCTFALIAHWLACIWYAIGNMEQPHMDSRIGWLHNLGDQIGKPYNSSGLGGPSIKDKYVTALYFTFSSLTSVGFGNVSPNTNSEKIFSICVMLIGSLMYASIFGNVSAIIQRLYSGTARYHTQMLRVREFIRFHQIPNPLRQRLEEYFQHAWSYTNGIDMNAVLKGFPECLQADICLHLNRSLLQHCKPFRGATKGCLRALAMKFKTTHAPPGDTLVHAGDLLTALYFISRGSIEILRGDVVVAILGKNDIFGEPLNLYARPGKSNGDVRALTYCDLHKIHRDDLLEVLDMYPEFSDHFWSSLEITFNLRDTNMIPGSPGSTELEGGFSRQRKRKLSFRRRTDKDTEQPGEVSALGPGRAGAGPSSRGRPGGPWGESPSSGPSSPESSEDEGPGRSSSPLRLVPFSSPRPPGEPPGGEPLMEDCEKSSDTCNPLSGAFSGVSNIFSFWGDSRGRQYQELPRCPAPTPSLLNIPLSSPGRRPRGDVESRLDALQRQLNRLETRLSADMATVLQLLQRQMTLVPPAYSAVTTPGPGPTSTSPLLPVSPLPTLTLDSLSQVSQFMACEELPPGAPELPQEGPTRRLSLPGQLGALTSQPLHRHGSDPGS
row,SMILES,"hERG current change (%, negative = inhibition) at 1uM [%]"
1,Cc1nnsc1C(=O)N1CCC(CO)(Cc2ccccc2Cl)CC1,9.14
2,CCc1ccc(C2CC(c3ccc(C)cc3)Nc3nc(N)nn32)cc1 (stereo not shown),8.52
3,CC1CC(C)CN(CCOc2ccc(Br)cc2)C1.O=C(O)C(=O)O (stereo not shown),-12.4
4,COc1ccc(CN2CCCC(C(=O)c3ccc(SC)cc3)C2)cc1Cn1cccn1 (stereo not shown),-68.5
5,CCOc1ccc(N=CC2=C(O)CC(c3ccco3)CC2=O)cc1 (stereo not shown),9.85
6,CC(C)CCNC(=O)COC(=O)/C=C/c1ccc2ccccc2n1,9.63
7,CC1(C)C(Cl)C(=O)C(C(=O)c2ccccc2)C(=O)C1Cl (stereo not shown),11.6
8,CCCC(=O)c1c[nH]c(C(=O)NCc2ccco2)c1,10
9,Cc1ccc(C)n1-c1nc(=S)[nH][nH]1,12.5
10,Nc1nonc1-n1nnc(C(=O)N/N=C/c2cccc(Cl)c2)c1-c1cccs1,5.76
11,O=C(NCc1ccccc1)c1ccc(S(=O)(=O)Nc2cccc(C(F)(F)F)c2)cc1,10.6
12,CCC(=O)Nc1ccc(-c2cc3ccccc3oc2=O)cc1,14.3
13,COc1ccc(C(C)=O)cc1CN1C(=O)NC2(CCCC2)C1=O,2.23
14,COC(=O)C1=C(C)NC=C([N+](=O)[O-])C1c1ccc(OC)cc1 (stereo not shown),-2.34
15,COc1ccc(C2OC(=O)CC2C(=O)NC(C)C)cc1 (stereo not shown),11.5
16,O=C(COc1ccc(Br)cc1)NCCO,15.1
17,COC(=O)CSc1cc(C(=O)c2nccn2C)c2ccccc2n1,9.32
18,CCOCCCn1c(SCC(=O)N2CCOCC2)nc2ccccc2c1=O,-13
19,C/C(=N/Nc1ccc(C)cc1)C1(C)N(O)C(C)(C)C(c2ccco2)=[N+]1[O-] (stereo not shown),2.95
20,O=c1c2c(nc3n1CCCCC3)sc1c(O)cccc12,-2.34
21,CCOC(=O)N1CCN(C(=O)CSC2=NS(=O)(=O)c3cc(F)ccc3N2)CC1,6.8
22,Cc1ccc(NS(=O)(=O)c2cccc(C(=O)NCCCN3CCCC3=O)c2)cc1,10.9
23,C/C=C1\COC(C(=O)NCc2ccncc2)(C(F)(F)F)C=C1C=C1CCCCC1 (stereo not shown),12.8
24,CCn1c(=NC(=O)CS(=O)(=O)c2ccc(F)cc2)sc2cccc(OC)c21,7.26
25,CCCCn1c(N)c(N(CCC(C)C)C(=O)CSc2nncn2-c2ccccc2)c(=O)[nH]c1=O,12.2

# Source: publication PMC4336329 (PLoS ONE, 2015)
